# Results: the supplement of paper PMC12217912
# The list shows a part of the results. The full chains were built here from the parent and the listed change. Inactive controls read about 0.05.
# B1: TEV protease; numbered along this chain (parent)
# chain: MGESLFKGPRDYNPISSSICHLTNESDGHTTSLYGIGFGPFIITNKHLFRRNNGTLVVQSLHGVFKVKDTTTLQQHLVDGRDMIIIRMPKDFPPFPQKLKFREPQREERICLVTTNFQTKSMSSMVSDTSCTFPSGDGIFWKHWIQTKDGQCGSPLVSTRDGFIVGIHSASNFTNTNNYFTSVPKNFMELLTNQEAQQWVSGWRLNADSVLWGGHKVFMVKPEEPFQPVKEATQL
# Variants of: B1
# Experiment: raw area under fraction-flipped curve 0-4 h after induction (AUC4h, not background-subtracted), DNA-recorder readout of cleavage of the substrate (dimensionless); higher = more cleavage of the substrate by the protease variant
# Details: temperature: 34 °C; time window: 0-4 h after rhamnose induction
# Protocol: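 In vivo DNA recorder in E. coli TOP10(DE3) ΔrhaA at 34 °C. Each TEVp single-site mutant (parent TEVp 0) is paired with a single-site variant of the 7-mer TEVs (canonical ENLYFQ|S). The substrate sits between flexible linkers in a Bxb1-sfGFP-TEVs-SsrA fusion, so cleavage stabilises Bxb1 and speeds flipping of a recombination array, read by NGS. The value is the raw area under the fraction-flipped curve over 0-4 h after rhamnose induction (AUC4h), with ≥20 reads per time point. It is not background-subtracted; inactive controls average about 0.047.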
# 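Further: Bxb1 expression induced with 0.2% (w/v) L-rhamnose at OD600 near 0.5, cultures sampled hourly, flipped fraction per protease–substrate barcode pair counted by paired-end Illumina sequencing.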
Variant,area with substrate EALYFQS,area with substrate ECLYFQS,area with substrate EDLYFQS,area with substrate EHLYFQS,area with substrate EKLYFQS,area with substrate ELLYFQS,area with substrate EMLYFQS,area with substrate EPLYFQS,area with substrate EQLYFQS,area with substrate ERLYFQS,area with substrate EVLYFQS,area with substrate EELYFQS,area with substrate EFLYFQS,area with substrate EILYFQS,area with substrate ESLYFQS,area with substrate ETLYFQS,area with substrate EWLYFQS,area with substrate EGLYFQS,area with substrate EYLYFQS
K68M,0.151,0.118,0.124,0.11,0.122,0.108,0.105,0.103,0.121,0.0858,0.0919,,,,,,,,
K221C,0.0968,0.112,,,0.122,0.0996,0.0947,0.108,0.206,0.0917,0.112,0.105,0.0956,0.0798,0.0879,0.0771,0.085,,
V78T,0.155,0.0792,0.113,0.0861,0.097,0.0525,0.0796,0.0946,0.111,0.089,,,0.123,0.0859,0.0858,,,0.0895,
S4F,0.165,0.104,,,0.209,0.142,0.147,,0.162,0.153,0.128,,0.139,0.13,0.15,,0.157,,0.158
L22F,0.0759,0.0617,,0.0814,0.0546,0.0748,0.073,0.0794,0.0804,0.0733,0.0173,0.069,,0.0544,0.065,,0.0583,0.0564,0.0819
S60A,0.124,0.0913,0.0715,,,0.0855,,0.154,0.112,0.12,0.085,,,0.0502,0.102,0.0977,,0.0842,
L112P,0.0499,0.0565,0.0548,0.0404,0.0563,0.068,0.0458,,0.0669,,0.0617,,,,0.0557,0.052,0.0458,,
P104Q,0.0599,0.0562,,,0.0417,0.0496,,,0.0704,,0.045,,0.0224,,0.052,,,,0.0372
I15V,0.13,0.101,0.121,,0.112,0.0828,0.118,0.122,0.133,0.104,0.0974,0.11,,0.09,0.112,,0.0845,,0.108
P184D,0.0918,0.0408,,,0.0771,0.0694,0.0867,,0.0959,,0.0893,,,,0.0717,,,,
R50Q,0.132,0.0869,0.129,0.13,0.101,,,,,0.154,0.114,0.147,,0.0991,0.0959,0.137,0.135,,
P134K,0.118,0.102,,,0.0981,,,,0.119,,,,,0.0706,0.0958,0.165,0.0999,,
K7N,0.115,0.0953,,0.104,,0.0465,,,0.117,0.103,0.145,0.131,,,0.107,,,,
Q234M,0.109,0.0716,,0.139,0.0901,,0.0869,,,,0.0874,0.119,,0.0889,0.107,,0.0893,,0.102
Q234C,0.0819,0.0883,0.12,,0.0971,0.0796,0.0993,,0.102,0.115,0.0907,0.104,0.102,0.108,0.095,0.11,0.122,0.0473,
I164K,0.0526,0.0448,,,,,,0.0472,,,0.0532,,,,0.0577,,0.0835,,
I145W,0.0595,0.0494,0.0511,,0.053,0.0765,0.024,,0.0534,,0.0582,0.0645,0.0499,0.0724,0.0456,,0.0412,0.0551,
S201V,0.1,0.102,0.136,0.0943,0.0827,0.106,0.0943,,,0.0891,0.104,,0.0622,0.119,,0.12,0.0807,,
T147L,0.0863,0.0955,0.0918,0.0659,,0.0706,,,0.0814,0.0741,,0.113,,0.0832,0.092,0.105,,,
E189W,0.108,0.0985,0.1,,0.16,,0.108,,,,0.0994,,,0.0645,0.1,,0.104,0.0986,
S16P,0.122,0.075,,,0.135,0.106,0.111,0.0848,0.115,0.0942,0.102,0.12,0.118,0.0827,0.0951,0.117,,0.0888,
C20K,0.0577,0.0698,0.0513,,0.0364,0.0502,,0.0504,,0.0573,,0.0488,0.0578,0.0339,0.0455,,0.0394,0.029,0.0445
T114C,0.103,0.079,,0.0907,,0.0584,0.103,,,,0.0729,0.106,,0.0949,,0.117,,0.084,
C111F,0.143,0.0968,0.132,,0.118,0.0861,0.112,,0.101,0.118,0.0976,0.117,,0.0656,0.109,0.113,,0.0815,0.101
M88S,0.127,,,0.0449,0.0916,0.0455,,,,0.0872,,,,0.0722,0.0655,,,0.0822,0.0995
S127F,0.156,0.0946,0.0892,,0.118,0.111,0.119,0.128,0.129,0.114,0.16,0.128,0.131,,0.104,0.139,,,0.0999
P14Q,0.114,0.0777,0.157,0.0887,0.137,0.0804,0.117,,,0.0917,0.0802,,,0.105,0.122,0.137,0.139,0.115,0.098
S123F,0.131,0.0612,0.146,0.117,,0.0945,0.109,0.112,0.109,0.0937,0.101,,,,0.0948,,,0.105,0.117
